Measured values reported in patent US10294218B2 (VIROSTATICS SRL, priority 2012, dated 2019).

Test system: Primary T cells
Experiment: Cytotoxicity, percentage of viable cells by flow cytometry
Type: cell-based
Method: Primary T cells are cultured and treated with different concentrations of the test compound. Viability is analysed by measuring through flow cytometry based techniques the percentage of viable cells, compared to untreated control=100%). Toxic dose 50% (TD50) is calculated.
In Tables 2, 3 and 4, ND means Not Determined.

Compound	TD50 (Toxic dose 50%) [µM]
COc1ccc(Nc2cc(-c3ccccc3OC)ncn2)cc1NS(=O)(=O)NC1CCCCC1 [Example 13, (2-Methoxy-5-(6-(2-methoxyphenyl)pyrimidin-4-ylamino)phenyl) (cyclohexylsulfamoyl)amine]	5
CNS(=O)(=O)Nc1cc(Nc2cc(-c3ccccc3OC)ncn2)ccc1OC [Example 10, (2-Methoxy-5-(6-(2-methoxyphenyl)pyrimidin-4-ylamino)phenyl)(methylsulfamoyl)amine]	3
COc1ccccc1-c1cc(Nc2ccc(OC)c([N+](=O)[O-])c2)ncn1 [Example 11, N-(4-Methoxy-3-nitrophenyl)-6-(2-methoxyphenyl)pyrimidin-4-amine]	>1.5
COC(=O)c1ccc(Nc2cc(-c3ccccc3OC)ncn2)cc1OC [Example 133, 2-Methoxy-4-[6-(2-methoxy-phenyl)-pyrimidin-4-ylamino]-benzoic Acid Methyl Ester]	>10
COc1ccc(Nc2cc(-c3ccccc3OC)ncn2)cc1CNCc1ccccc1 [Example 1, N-(3-((Benzylamino)methyl)-4-methoxyphenyl)-6-(2-methoxyphenyl)pyrimidin-4-amine]	3.5
CCOc1ccc(F)cc1-c1cc(Nc2cc(F)c(OC)c(C(N)=O)c2)ncn1 [Example 142, 5-[6-(2-Ethoxy-5-fluoro-phenyl)-pyrimidin-4-ylamino]-3-fluoro-2-methoxy-benzamide]	>20
COc1ccc(Nc2cc(-c3ccccc3OC)ncn2)cc1N [Example 41, 4-Methoxy-N1-(6-(2-methoxyphenyl)pyrimidin-4-yl)benzene-1,3-diamine]	8.5
COC(=O)c1cc(Nc2cc(-c3ccccc3OC)ncn2)ccc1O [Example 21, Methyl 2-hydroxy-5-(6-(2-methoxyphenyl)pyrimidin-4-ylamino)benzoate]	>0.5
COc1cc(F)c(Nc2cc(-c3ccc(F)cc3OC)ncn2)cc1C(N)=O [Example 146, 4-Fluoro-5-[6-(4-fluoro-2-methoxy-phenyl)-pyrimidin-4-ylamino]-2-methoxy-benzamide]	10
CCOc1cc(F)ccc1-c1cc(Nc2ccc(OC)c(C(N)=O)c2)ncn1 [Example 130, 5-[6-(2-Ethoxy-4-fluoro-phenyl)-pyrimidin-4-ylamino]-2-methoxy-benzamide]	15
COc1ccc(Nc2cc(-c3ccccc3OC)ncn2)cc1CN [Example 43, N-(3-(Aminomethyl)-4-methoxyphenyl)-6-(2-methoxyphenyl)pyrimidin-4-amine]	2
COc1ccccc1-c1cc(Nc2ccc(Cl)c(C(N)=O)c2)ncn1 [Example 44, 2-Chloro-5-(6-(2-methoxyphenyl)pyrimidin-4-ylamino)benzamide]	>5
COc1ccc(Nc2cc(-c3ccccc3O)ncn2)cc1N [Example 70, 2-[6-(3-Amino-4-methoxy-phenylamino)-pyrimidin-4-yl]-phenol]	>10
COc1ccc(Nc2cc(-c3ccccc3OC)ncn2)cc1CNS(C)(=O)=O [Example 4, N-(2-Methoxy-5-(6-(2-methoxyphenyl)pyrimidin-4-ylamino)benzyl)methanesulfonamide]	2.1
CCOC(=O)c1cc(Nc2cc(-c3ccccc3OC)ncn2)ccc1N1CCOCC1 [Example 18, Ethyl 5-(6-(2-methoxyphenyl)pyrimidin-4-ylamino)-2-morpholinobenzoate]	>0.5
CCOc1ccc(Nc2cc(-c3ccc(F)cc3OC)ncn2)cc1O [Example 114, 2-Ethoxy-5-[6-(4-fluoro-2-methoxy-phenyl)-pyrimidin-4-ylamino]-phenol]	10
CCOc1ccccc1-c1cc(Nc2cc(C(N)=O)c(OC)cc2F)ncn1 [Example 145, 5-[6-(2-Ethoxy-phenyl)-pyrimidin-4-ylamino]-4-fluoro-2-methoxy-benzamide]	15
COc1cc(F)ccc1-c1cc(Nc2cc(N)c(OC)c(F)c2)ncn1 [Example 90, 5-Fluoro-N^1-[6-(4-fluoro-2-methoxy-phenyl)-pyrimidin-4-yl]-4-methoxy-benzene-1,3-diamine]	>20
CN1CC[C@H](c2c(O)cc(O)c3c(=O)cc(-c4ccccc4Cl)oc23)[C@H](O)C1 [Flavopiridol, reference compound]	0.1
COc1ccccc1-c1cc(Nc2cc(F)c(OC)c(C(N)=O)c2)ncn1 [Example 137, 3-Fluoro-2-methoxy-5-[6-(2-methoxy-phenyl)-pyrimidin-4-ylamino]-benzamide]	>2
CNC(=O)c1ccc(Nc2cc(-c3ccccc3OC)ncn2)cc1OC [Example 134, 2-Methoxy-4-[6-(2-methoxy-phenyl)-pyrimidin-4-ylamino]-N-methylbenzamide]	>10
COc1ccc(Nc2cc(-c3cc(F)ccc3OC)ncn2)cc1O [Example 122, 5-[6-(5-Fluoro-2-methoxy-phenyl)-pyrimidin-4-ylamino]-2-methoxy-phenol]	>2

Compound	TD50 (Toxic dose 50%) [µM]
COc1ccc(Nc2cc(-c3ccccc3Oc3ccccc3)ncn2)cc1N [Example 77, 4-Methoxy-N^1-[6-(2-phenoxy-phenyl)-pyrimidin-4-yl]-benzene-1,3-diamine]	10
COc1ccc(-c2cc(Nc3ccc(OC)c(N)c3)ncn2)cc1 [Example 66, 4-Methoxy-N^1-[6-(4-methoxy-phenyl)-pyrimidin-4-yl]-benzene-1,3-diamine]	>10
COc1ccc(Nc2cc(-c3ccccc3OC)ncn2)cc1CNc1ccccc1 [Example 34, N-(4-Methoxy-3-((phenylamino)methyl)phenyl)-6-(2-methoxyphenyl)pyrimidin-4-amine]	>5
COc1ccccc1-c1cc(Nc2ccc(Cl)c(C(=O)NN)c2)ncn1 [Example 7, 2-Chloro-5-(6-(2-methoxyphenyl)pyrimidin-4-ylamino)benzohydrazide]	>5
COc1ccc(Nc2cc(-c3ccc(F)cc3OC(C)C)ncn2)cc1N [Example 86, N^1-[6-(4-Fluoro-2-isopropoxy-phenyl)-pyrimidin-4-yl]-4-methoxy-benzene-1,3-diamine]	4
COc1ccccc1-c1cc(Nc2ccc(N3CCN(C)CC3)c(Cn3cnc4ccccc43)c2)ncn1 [Example 2, N-(3-((1H-Benzo[d]imidazol-1-yl)methyl)-4-(4-methylpiperazin-1-yl)phenyl)-6-(2-methoxyphenyl)pyrimidin-4-amine]	0.4
COc1ccccc1-c1cc(Nc2ccc(Cl)c(CO)c2)ncn1 [Example 6, (2-Chloro-5-(6-(2-methoxyphenyl)pyrimidin-4-ylamino)phenyl)methanol]	>0.5
CCOc1ccccc1-c1cc(Nc2ccc(OC)c(C(N)=O)c2)ncn1 [Example 129, 5-[6-(2-Ethoxy-phenyl)-pyrimidin-4-ylamino]-2-methoxy-benzamide]	5
CCOc1ccccc1-c1cc(Nc2ccc(OC)c(N)c2)ncn1 [Example 62, N^1-[6-(2-Ethoxy-phenyl)-pyrimidin-4-yl]-4-methoxy-benzene-1,3-diamine]	4
CCOc1ccc(Nc2cc(-c3ccc(F)cc3OC)ncn2)cc1N [Example 105, 4-Ethoxy-N^1-[6-(4-fluoro-2-methoxy-phenyl)-pyrimidin-4-yl]-benzene-1,3-diamine]	7
COc1ccc(Nc2cc(-c3cc(F)ccc3OC)ncn2)cc1C(N)=O [Example 127, 5-[6-(5-Fluoro-2-methoxy-phenyl)-pyrimidin-4-ylamino]-2-methoxy-benzamide]	7
CCOc1ccc(Nc2cc(-c3ccccc3OC)ncn2)cc1C(N)=O [Example 111, 2-Ethoxy-5-[6-(2-methoxy-phenyl)-pyrimidin-4-ylamino]-benzamide]	12
COc1ccc(Nc2cc(-c3cccc(F)c3OC)ncn2)cc1N [Example 81, N^1-[6-(3-Fluoro-2-methoxy-phenyl)-pyrimidin-4-yl]-4-methoxy-benzene-1,3-diamine]	3
COc1ccc(Nc2cc(-c3ccccc3OC)ncn2)cc1C(=O)O [Example 49, 2-Methoxy-5-[6-(2-methoxy-phenyl)-pyrimidin-4-ylamino]-benzoic acid]	>10
COc1cc(Nc2cc(-c3ccccc3OC)ncn2)ccc1C(N)=O [Example 136, 2-Methoxy-4-[6-(2-methoxy-phenyl)-pyrimidin-4-ylamino]-benzamide]	>2
CNC(=O)c1cc(Nc2cc(-c3ccccc3OC)ncn2)ccc1OC [Example 25, 2-Methoxy-5-(6-(2-methoxyphenyl)pyrimidin-4-ylamino)-N-methylbenzamide]	>0.5
COc1cc(F)c(Nc2cc(-c3ccccc3OC)ncn2)cc1C(N)=O [Example 143, 4-Fluoro-2-methoxy-5-[6-(2-methoxy-phenyl)-pyrimidin-4-ylamino]-benzamide]	15
COc1ccccc1-c1cc(Nc2ccc(Cl)c(C(=O)N3CCCC3)c2)ncn1 [Example 15, (2-Chloro-5-(6-(2-methoxyphenyl)pyrimidin-4-ylamino)phenyl)(pyrrolidin-1-yl)methanone]	>0.5
COc1ccc(Nc2cc(-c3ccccc3OC)ncn2)cc1C(=O)NN [Example 33, 2-Methoxy-5-(6-(2-methoxyphenyl)pyrimidin-4-ylamino)benzohydrazide]	>5
COc1ccccc1-c1cc(Nc2ccc(N3CCN(C)CC3)c(CO)c2)ncn1 [Example 17]	>0.5
COc1ccc(Nc2cc(-c3ccccc3OC)ncn2)cc1C(=O)NCc1ccccc1 [Example 23, N-Benzyl-2-methoxy-5-(6-(2-methoxyphenyl)pyrimidin-4-ylamino)benzamide]	>0.5
COc1ccc(Nc2cc(-c3ccccc3OC(C)C)ncn2)cc1N [Example 79, N^1-[6-(2-Isopropoxy-phenyl)-pyrimidin-4-yl]-4-methoxy-benzene-1,3-diamine]	15
